Legend:
Type in all cases: in vivo
Botrytis cinerea = assay: Test Example B: Gray mold on tomato; conditions: 250 ppm spray, preventive; control value class
Source text: [Test Example B] Gray Mold on Tomato
Seeds of a test plant (tomato variety: Oogata Fukuju) were planted followed by cultivating until three to five first leaves (true leaves) appeared.

Alternaia brassicicola = assay: Test Example C: Alternaria sooty spot on cabbage; conditions: 250 ppm spray, preventive; control value class
Source text: [Test Example C] Alternaria Sooty Spot on Cabbage
Seeds of a test plant (cabbage variety: Shikidori) were planted followed by cultivating until the cotyledons extended.

[1] = system: Blumeria graminis f sp. hordei; assay: Test Example D: Powdery mildew on barley; conditions: 250 ppm spray, preventive; control value class
Source text: [Test Example D] Powdery Mildew on Barley
After the sprayed dilutions were dried, conidia of Blumeria graminis f sp. hordei were inoculated to the plants by shaking off.

Puccinia recondita = assay: Test Example E: Brown rust on wheat; conditions: 250 ppm spray, preventive; control value class
Source text: [Test Example E] Brown Rust on Wheat

Plasmopara viticola = assay: Test Example G: Downy mildew on vine; conditions: 250 ppm spray (2.5 ml/pot), preventive; 7-10 days after inoculation; control value class
Source text: [Test Example G] Downy Mildew on Vine
Seeds of a test plant (grape variety: Neomuscat) were planted followed by cultivating until three to four first leaves appeared. […] After the sprayed dilutions were dried, a zoosporangia suspension (1-2×10^4 zoosporangia/ml) of Plasmopara viticola was inoculated to the plants by spraying.

Cn1c(-c2c(F)cccc2F)c(-c2cc(OCCC3OCCCO3)ccc2Cl)ccc1=O [Compound 318]
Test B control value (gray mold on tomato) (Botrytis cinerea): H (H shows more than 50% of control values) | Test C control value (Alternaria sooty spot on cabbage) (Alternaia brassicicola): L (L shows 50% or less of control values) | Test D control value (powdery mildew on barley) [1]: L (L shows 50% or less of control values) | Test E control value (brown rust on wheat) (Puccinia recondita): H (H shows more than 50% of control values) | Test G control value (downy mildew on vine) (Plasmopara viticola): L (L shows 50% or less of control values)

COc1cc(OC)c(Cl)c(-c2ccc(=O)n(C)c2-c2c(F)cc(OCC(F)(F)F)cc2F)c1 [Compound 319]
Test B control value (gray mold on tomato) (Botrytis cinerea): H (H shows more than 50% of control values) | Test C control value (Alternaria sooty spot on cabbage) (Alternaia brassicicola): H (H shows more than 50% of control values) | Test D control value (powdery mildew on barley) [1]: H (H shows more than 50% of control values) | Test E control value (brown rust on wheat) (Puccinia recondita): H (H shows more than 50% of control values) | Test G control value (downy mildew on vine) (Plasmopara viticola): L (L shows 50% or less of control values)

CCn1c(-c2c(F)cc(F)cc2F)c(-c2cc(F)ccc2Cl)ccc1=O [Compound 321, 5-(2-chloro-5-fluorophenyl)-1-ethyl-6-(2,4,6-trifluorophenyl)pyridine-2(1H)-one]
Test B control value (gray mold on tomato) (Botrytis cinerea): H (H shows more than 50% of control values) | Test C control value (Alternaria sooty spot on cabbage) (Alternaia brassicicola): H (H shows more than 50% of control values) | Test D control value (powdery mildew on barley) [1]: H (H shows more than 50% of control values) | Test E control value (brown rust on wheat) (Puccinia recondita): H (H shows more than 50% of control values) | Test G control value (downy mildew on vine) (Plasmopara viticola): H (H shows more than 50% of control values)

CCn1c(-c2c(F)cc(F)cc2F)c(-c2cc(F)ccc2Cl)cc(Cl)c1=O [Compound 322]
Test B control value (gray mold on tomato) (Botrytis cinerea): H (H shows more than 50% of control values) | Test C control value (Alternaria sooty spot on cabbage) (Alternaia brassicicola): H (H shows more than 50% of control values) | Test D control value (powdery mildew on barley) [1]: H (H shows more than 50% of control values) | Test E control value (brown rust on wheat) (Puccinia recondita): H (H shows more than 50% of control values) | Test G control value (downy mildew on vine) (Plasmopara viticola): L (L shows 50% or less of control values)

CCn1c(-c2c(F)cccc2F)c(-c2cc(OCC3CCCC3)ccc2Cl)ccc1=O [Compound 323]
Test B control value (gray mold on tomato) (Botrytis cinerea): L (L shows 50% or less of control values) | Test C control value (Alternaria sooty spot on cabbage) (Alternaia brassicicola): H (H shows more than 50% of control values) | Test D control value (powdery mildew on barley) [1]: H (H shows more than 50% of control values) | Test E control value (brown rust on wheat) (Puccinia recondita): L (L shows 50% or less of control values) | Test G control value (downy mildew on vine) (Plasmopara viticola): L (L shows 50% or less of control values)

Cn1c(-c2c(F)cccc2F)c(-c2cc(OCC3CCCC3)ccc2Cl)ccc1=O [Compound 324]
Test B control value (gray mold on tomato) (Botrytis cinerea): L (L shows 50% or less of control values) | Test C control value (Alternaria sooty spot on cabbage) (Alternaia brassicicola): H (H shows more than 50% of control values) | Test D control value (powdery mildew on barley) [1]: L (L shows 50% or less of control values) | Test E control value (brown rust on wheat) (Puccinia recondita): L (L shows 50% or less of control values) | Test G control value (downy mildew on vine) (Plasmopara viticola): L (L shows 50% or less of control values)

CCOCOc1ccc(Cl)c(-c2ccc(=O)n(CC)c2-c2c(F)cccc2F)c1 [Compound 325]
Test B control value (gray mold on tomato) (Botrytis cinerea): H (H shows more than 50% of control values) | Test C control value (Alternaria sooty spot on cabbage) (Alternaia brassicicola): H (H shows more than 50% of control values) | Test D control value (powdery mildew on barley) [1]: H (H shows more than 50% of control values) | Test E control value (brown rust on wheat) (Puccinia recondita): H (H shows more than 50% of control values) | Test G control value (downy mildew on vine) (Plasmopara viticola): L (L shows 50% or less of control values)

CCOCOc1ccc(Cl)c(-c2ccc(=O)n(C)c2-c2c(F)cccc2F)c1 [Compound 326]
Test B control value (gray mold on tomato) (Botrytis cinerea): H (H shows more than 50% of control values) | Test C control value (Alternaria sooty spot on cabbage) (Alternaia brassicicola): H (H shows more than 50% of control values) | Test D control value (powdery mildew on barley) [1]: H (H shows more than 50% of control values) | Test E control value (brown rust on wheat) (Puccinia recondita): H (H shows more than 50% of control values) | Test G control value (downy mildew on vine) (Plasmopara viticola): H (H shows more than 50% of control values)
